Each structure is given as a SMILES string. Among all 110,000 compounds or so, about 230 (0.21%) showed an effect of 50% or more. The list shows a part of the results.
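Further: 30 min substrate incubation versus DMSO and 10 µM JCP410 controls.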

In the assay the target is DPAP1 (Plasmodium falciparum, UniProt Q8IIJ9). Put plainly: primary screen, percent inhibition; read by cleavage of a fluorogenic dipeptide substrate; higher = more effect of the substance. On the set-up: species or system P. falciparum D10 trophozoite lysates; single well.
DPAP1, sequence (Q8IIJ9 whole entry, looked up): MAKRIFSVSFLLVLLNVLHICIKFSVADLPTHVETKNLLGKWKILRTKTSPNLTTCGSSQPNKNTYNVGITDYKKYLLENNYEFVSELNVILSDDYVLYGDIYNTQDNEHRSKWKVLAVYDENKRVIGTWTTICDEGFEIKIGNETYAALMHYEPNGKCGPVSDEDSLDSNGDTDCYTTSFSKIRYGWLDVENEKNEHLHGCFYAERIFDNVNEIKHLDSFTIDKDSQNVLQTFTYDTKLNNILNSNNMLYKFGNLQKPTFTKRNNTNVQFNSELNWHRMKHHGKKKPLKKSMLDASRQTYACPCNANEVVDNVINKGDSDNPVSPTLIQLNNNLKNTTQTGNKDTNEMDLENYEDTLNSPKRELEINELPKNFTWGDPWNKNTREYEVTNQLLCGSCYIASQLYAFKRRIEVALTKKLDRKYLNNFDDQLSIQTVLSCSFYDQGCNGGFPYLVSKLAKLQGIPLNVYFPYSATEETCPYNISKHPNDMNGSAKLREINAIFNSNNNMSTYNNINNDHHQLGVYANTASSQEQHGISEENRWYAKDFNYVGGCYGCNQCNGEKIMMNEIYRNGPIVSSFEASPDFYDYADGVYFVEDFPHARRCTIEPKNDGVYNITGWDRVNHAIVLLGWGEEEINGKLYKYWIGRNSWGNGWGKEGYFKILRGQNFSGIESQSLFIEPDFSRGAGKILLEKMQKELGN
With `COc1cc(S(=O)(=O)N2CCC(C(N)=O)CC2)c(C)cc1C`, the “% Inhibition @ 10 uM” value is reported as 1.93%.

For `COc1ccc(C(=O)Nc2cc(Cl)cc(Cl)c2)cc1OC`, the “% Inhibition @ 10 uM” value is recorded as 0.823%.

For the molecule `CCN(CC)C(=O)CN(c1ccc(OC)c(Cl)c1)S(=O)(=O)c1ccc(C)cc1`, the “% Inhibition @ 10 uM” value was -5.88%.

For the molecule `Cc1ccc(C(=O)CCC(=O)Nc2nnc(C)s2)cc1`, the “% Inhibition @ 10 uM” value is given as 1.88%.

As to `OC(CC(O)c1ccccc1)CN1CCOCC1` (centres unmarked), the “% Inhibition @ 10 uM” value came out at 0.472%.

For the molecule `C/C=C1/C(C)C(C(F)(F)F)(C(F)(F)F)C(C#N)=C(N)N1c1ccc(C(N)=O)cc1` (centres unmarked), the “% Inhibition @ 10 uM” value was -4.75%.

For the molecule `O=C(NCc1ccco1)c1cc(-c2ccccc2F)no1`, the “% Inhibition @ 10 uM” value is -7.67%.

As to `OCCn1c(CO)nc2ccccc21`, the “% Inhibition @ 10 uM” value is on record as 3.32%.

Turning to `Cc1cc(C)n2nc(SCc3cc(=O)n4ccccc4n3)nc2n1`, the “% Inhibition @ 10 uM” value was -0.406%.

Regarding `CCCCCCNC(=O)CC(NS(=O)(=O)c1ccc(OC)cc1)C(C)C` (centres unmarked), the “% Inhibition @ 10 uM” value amounted to 1.27%.

Turning to `CCN(CC)CCNC(=O)c1nnc(Cc2ccc(F)cc2)o1`, the “% Inhibition @ 10 uM” value was 1.51%.

Take `CCCc1nc2sc3c(Cl)ncnc3c2c2c1COC(C)(C)C2`: the “% Inhibition @ 10 uM” value was -3.24%.

`COCCNC(=O)c1ccc2c(c1)sc1nc(-c3ccc(C)cc3)cn12`: the “% Inhibition @ 10 uM” value is given as -1.48%.

As to `CC(C)(C)c1ccc(-c2cc(N)[nH]n2)cc1`, the “% Inhibition @ 10 uM” value is -2.88%.

In the case of `CC[C@H](NC(=O)[C@H](Cc1ccccc1)NC(C)=O)C(=O)c1nc2ccccc2o1`, the “% Inhibition @ 10 uM” value was -5.21%.

Turning to `O=C(O)c1cccc(NC(=O)c2c(C(=O)O)cccc2[N+](=O)[O-])c1`, the “% Inhibition @ 10 uM” value came to 0.266%.

Take `COc1ccc(-c2csc(/C(C#N)=C/c3ccc(Cl)cc3Cl)n2)cc1`: the “% Inhibition @ 10 uM” value is 1.41%.

Consider `O=C1c2ccccc2Cc2ccccc21`, for which the “% Inhibition @ 10 uM” value was 4.11%.

On to `CCCNC(=O)C1CCCN(S(=O)(=O)N2CCC3(CC2)OCCO3)C1` (centres unmarked), for which the “% Inhibition @ 10 uM” value turned out to be 2%.

For `O=C(O)CCCC(=O)NCc1ccc(C(=O)O)cc1`, the “% Inhibition @ 10 uM” value is -2.9%.

With `O=[N+]([O-])c1ccccc1S(=O)(=O)Nc1ccccc1Cl`, the “% Inhibition @ 10 uM” value is -4.85%.

Consider `Cc1cccc(-c2nc(CSc3nncn4c3cc3occc34)c(C)o2)c1`, for which the “% Inhibition @ 10 uM” value came to 6.94%.

Turning to `Cc1cc(NC(=O)c2cccn(OCc3ccccc3)c2=O)no1`, the “% Inhibition @ 10 uM” value is -3.44%.

Turning to `CCOC(=O)N1CCC(NC(=O)c2ccc3nc(/C=C(\O)c4ccc(OC)cc4)c(O)nc3c2)CC1`, the “% Inhibition @ 10 uM” value was -1.59%.

As to `COc1ccccc1/C=C1\N=C(c2ccc(C(C)(C)C)cc2)OC1=O`, the “% Inhibition @ 10 uM” value was 6.11%.

As to `Cc1cc(=O)oc2c1c(C)nn2-c1ccc(Cl)cc1`, the “% Inhibition @ 10 uM” value is listed as -1.85%.

Consider `O=c1c(-c2ccc3c(c2)OCCO3)coc2cc(O)cc(O)c12`, for which the “% Inhibition @ 10 uM” value is listed as -5.28%.

On to `CCOC(=O)c1ccc(OC)c(S(=O)(=O)N2CCOCC2)c1`, for which the “% Inhibition @ 10 uM” value is listed as -0.357%.

Turning to `Cc1sc2nc(NC(=O)c3ccccc3)sc(=O)c2c1C`, the “% Inhibition @ 10 uM” value is reported as 3%.

Consider `COc1ccc(/C=C2\N=C(c3ccc(Cl)cc3Cl)OC2=O)c(OC)c1OC`, for which the “% Inhibition @ 10 uM” value came out at 0.434%.

Take `CCOc1cc(/C=C2/NC(=O)N(CC)C2=O)ccc1OC`: the “% Inhibition @ 10 uM” value was -15.4%.

As to `COc1cccc(CSc2nc3ccncc3[nH]2)c1`, the “% Inhibition @ 10 uM” value is on record as 4.83%.

Regarding `CCc1nn(CC(=O)NCc2ccccc2)c(=O)c2cc3sccc3n12`, the “% Inhibition @ 10 uM” value was -7.1%.

As to `Cc1nn(Cc2ccc(F)cc2)c(C)c1NC(=O)CC12CC3CC(CC(C3)C1)C2`, the “% Inhibition @ 10 uM” value is reported as 0.931%.

Regarding `CCCCO/C(O)=C1\C(C)=NC2=C(C(=O)CCC2)C1c1cccc(O)c1` (centres unmarked), the “% Inhibition @ 10 uM” value is 4.1%.

Turning to `O=C1OC(c2ccc(Cl)c(Cl)c2)=N/C1=C\c1ccccc1F`, the “% Inhibition @ 10 uM” value was -6.38%.

With `CCCCN(Cc1ccco1)C(=O)Cn1ncc2c1-c1ccccc1OC2`, the “% Inhibition @ 10 uM” value is given as -0.692%.

In the case of `CCc1c2c(nc3sc(C(=O)Nc4nsc(-c5ccccc5)n4)c(N)c13)CC(C)(C)CC2=O`, the “% Inhibition @ 10 uM” value came out at 41.9%.

Turning to `CCc1ccccc1N(CC(=O)NCc1ccco1)S(=O)(=O)c1ccc(C)cc1`, the “% Inhibition @ 10 uM” value was -1.99%.

Turning to `Cc1cc(C)nc(SCC(=O)Nc2cccc(C(F)(F)F)c2)n1`, the “% Inhibition @ 10 uM” value is -3.37%.

In the case of `CCOCCCNC(=O)C1CCCN(C(=O)c2cnn(-c3ccccc3)c2-n2cccc2)C1` (centres unmarked), the “% Inhibition @ 10 uM” value was -2%.

As to `O=C(NCc1cccnc1)Nc1ccc(Cl)cc1`, the “% Inhibition @ 10 uM” value is given as -0.67%.

Turning to `Cc1n[nH]c(C)c1S(=O)(=O)N1CCCC(C(=O)NC2CCCCC2)C1` (centres unmarked), the “% Inhibition @ 10 uM” value came to 2.39%.

On to `Cc1nc2ccccc2n1CCOc1ccc(Br)cc1`, for which the “% Inhibition @ 10 uM” value is -9.1%.

As to `CCOC(=O)c1sc(NC(=O)COc2ccccc2Br)nc1C`, the “% Inhibition @ 10 uM” value is 0.611%.

As to `O=C1/C(=C/C=C/c2ccccc2[N+](=O)[O-])Sc2ccccc21`, the “% Inhibition @ 10 uM” value is given as -0.294%.

For the molecule `Cc1ccc(-n2nc3c(=O)n(CCCC(=O)NCCc4ccccc4C)nc(C)c3c2C)cc1`, the “% Inhibition @ 10 uM” value is -3.43%.

With `COc1ccc(S(=O)(=O)N2CCN(c3ccc(Cl)c(Cl)c3)CC2)cc1`, the “% Inhibition @ 10 uM” value was 3.53%.

Consider `COc1cc(OC)cc(C(=O)Nc2ccccc2C(=O)NCc2ccco2)c1`, for which the “% Inhibition @ 10 uM” value is -2.34%.

Take `O=C(Nc1ccccc1Br)c1cccc([N+](=O)[O-])c1`: the “% Inhibition @ 10 uM” value is on record as -4.31%.

(Values after paper PMC6919601, “Identification of Plasmodium dipeptidyl aminopeptidase allosteric inhibitors by high throughput screening” (PLoS ONE, 2019).)
